Data as given in PubChem BioAssay AID686970 (National Center for Advancing Translational Sciences (NCATS), 2013).
About 6,000 (1.7%) of roughly 360,000 compounds were called active. This list was built around the results that the source calls inconclusive (neither active nor inactive); the mix of calls is not that of the screen. Calls come from the whole dose curve; as a rule, active = well fitted cell-killing curve with a large enough effect; inconclusive = small, poorly fitted or top-dose-only effect, or effect the other way; inactive = flat fitted curve, though single readings scatter. No potency is given beside an inconclusive call; the fits are too rough.

Experiment: qHTS for induction of synthetic lethality in tumor cells producing 2HG: qHTS for the HT-1080-NT fibrosarcoma cell line;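 note: NT is the 2HG producing partner of a matched IDH1 knockdown line; nearly all actives have a fitted effect of over 55% in size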;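 for activity, negative = less viability: 0% = DMSO-treated cells and -100% = media-only wells without cells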
Conditions: HT-1080-NT fibrosarcoma viability, CellTiter-Glo ATP luminescence, 48 h; activity, negative = less viability: at 46.1 µM (top of the series) unless noted
In short: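 Luminescent CellTiter-Glo readout after 48 hours of compound exposure at 37 degrees C defined viability of HT-1080-NT cells. Activity was normalized to DMSO wells and cell-free media wells; concentration-response curves were fitted and assigned curve classes.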
Potency is the fitted concentration of half-maximal effect; tags give direction and shape of the fitted curve.

Row | SMILES | Potency | activity, negative = less viability
1 | CCn1c(SCC(=O)Nc2nc3ccccc3s2)nnc1-c1ccc(OC)cc1 | inconclusive [cytotoxic, single point] | –
2 | N#Cc1c(-c2ccccc2)c(-c2ccccc2)nn(CC(=O)NNC(=O)Nc2ccc(Cl)cc2)c1=O | active: 6.51 µM | –
3 | O=C(COC(=O)c1cccc(S(=O)(=O)NCc2ccccc2)c1)c1ccc2c(c1)OCCO2 | inconclusive [cytotoxic, partial curve, poor fit] | –
4 | CCOc1ccc(CCN2C(=O)C(=O)N([C@@H](CC(C)C)CN3CCC[C@@H]3CN3C(=O)C(=O)NC[C@@H]3Cc3ccccc3)C[C@@H]2CC(C)C)cc1 | inconclusive [cytotoxic, partial curve] | –
5 | c1ccc(-c2ccncc2)nc1 | – | inactive: 6.67%
6 | Cc1ccc(C)c(N2N=C(C(=O)OCc3nnc(-c4ccccc4Br)o3)CCC2=O)c1 | – | inactive: -1.29%
7 | CCOC(=O)C1(Cc2cccc(OC)c2)CCN(Cc2cccc(OC)c2O)CC1 | inconclusive [cytotoxic, single point] | –
8 | C[C@H](O)[C@@H]1C(=O)N2CCc3ccc(-c4cccc(F)c4)cc3[C@@H]2C[C@@H]1N(C)C(=O)C(C)(C)C | – | inactive: -13.7%
9 | CC(=O)c1ccc(NC(=O)C(C)N2CCN(C/C=C/c3ccccc3)CC2)cc1 (stereo not given) | – | inactive: -12.2%
10 | CCOC(=O)C1=C(CC)Nc2ccccc2N/C1=N\S(=O)(=O)c1cc(Br)ccc1Br | inconclusive [cytotoxic, partial curve] | –
11 | O=C1CCSc2cccc3cccc(c23)N1 | – | inconclusive: 0% [cytotoxic]
12 | O=C(Nc1cccc(Cl)c1N1CCOCC1)c1cccs1 | inconclusive [rising, single point] | –
13 | CCn1c(N2CCN(C(=O)C34CC5CC(CC(C5)C3)C4)CC2)nc2ccccc21 | inconclusive [cytotoxic, single point] | –
14 | OC(c1ccccc1)(c1nc(-c2cccc3cccnc23)cs1)C(F)(F)F (stereo not given) | inconclusive [cytotoxic, single point] | –
15 | O=C(Cn1cnc([N+](=O)[O-])c1)Nc1ccc(Cl)cc1Cl | – | inactive: -0.751%
16 | Fc1cccc2sc(Nc3nc4cc5c(cc4s3)OCO5)nc12 | inconclusive [cytotoxic, single point] | –
17 | CCc1nc2ccc(C(=O)NCc3ccc(OC)cc3)cn2c1N(CCC(C)C)CCN(C)C | inconclusive [cytotoxic, single point] | –
18 | CCN(CC)CCn1c(NC(=O)c2ccc(C)cc2)nc2ccccc21 | – | inconclusive: -18.3% [cytotoxic]
19 | COc1ccc(S(=O)(=O)N2CCCC2C(=O)n2nc(C)cc2C)cc1 (stereo not given) | inconclusive [cytotoxic, single point] | –
20 | c1ccc2c(c1)CC/C2=N/Nc1nc2ccccc2[nH]1 | inconclusive [cytotoxic, single point] | –
21 | O=C(/C=C\Nc1ccc2c(c1)OCO2)c1ccccn1 | inconclusive [cytotoxic, single point] | –
22 | COc1cccc(/C=N/NC(=O)CNC(=O)C(c2ccccc2)c2ccccc2)c1O | – | inconclusive: -16.5% [cytotoxic]
23 | COc1ccccc1CNC(=O)Nc1nc(C(N)C(C)C)cs1 (stereo not given) | inconclusive [cytotoxic, single point] | –
24 | Clc1ccc(CN2C3=NCCN3c3ccccc32)cc1 | – | inconclusive: -31.5% [cytotoxic]

Row | SMILES | Potency | activity, negative = less viability
25 | COc1ccc(C(=O)/C=C/c2cccnc2)c(OC)c1 | inconclusive [cytotoxic, single point] | –
26 | CSc1nc(=S)cc(C)[nH]1 | – | inconclusive: 32.6%
27 | CCOC(=O)CSc1nc(-c2ccc3c(c2)OCO3)ccc1C#N | – | inconclusive: 8.73%
28 | Cc1cc(Br)ccc1NC(=O)C1C2CCC(O2)C1C(=O)O (stereo not given) | – | inactive: 16.1%
29 | NCc1csc(Nc2nncc3ccccc23)n1 | inconclusive [rising, partial curve] | –
30 | COc1cc2oc(=O)cc(-c3ccc(-c4ccc(C)cc4)cc3)c2c(OC)c1OC | – | inactive: 16.2%
31 | CN(C)S(=O)(=O)N1CCN(CC(O)COc2ccc3cc(Br)ccc3c2)CC1 (stereo not given) | inconclusive [cytotoxic, single point] | –
32 | CCCC(O)(CCC)C(=O)NNc1ccc(C)cc1 | – | inconclusive: 0% [cytotoxic]
33 | COc1ccccc1N(C)S(=O)(=O)c1ccc(C(=O)Nc2ccc(N3CCOCC3)cc2)cc1 | – | inconclusive: -30.2% [cytotoxic]
34 | N=c1c2c(ncn1Cc1ccco1)Oc1c(ccc3ccccc13)C2c1ccccc1 (stereo not given) | active: 16.4 µM | –
35 | COc1ccc(CNC(=O)c2ccc(-c3ccc(F)c(F)c3)c3ccoc23)cc1OC | – | inactive: -23.5%
36 | C/C(=N\N=C(N)N)c1ccc(Cl)c(Cl)c1 | active: 23.1 µM | –
37 | CC(=O)c1cccc(OCC(=O)N(C)CC(=O)NCc2ccco2)c1 | – | inactive: -10% [at 9.24 µM]
38 | Cc1ccc(-c2ccc(CN3C(C(C)C)C(=O)N(Cc4cn(CCC5OCCO5)nn4)CCS3(=O)=O)cc2)cc1 (stereo not given) | inconclusive [cytotoxic, single point] | –
39 | COc1ccc(-c2nc(NC(C)=O)sc2-c2ccccc2)cc1 | inconclusive [cytotoxic, partial curve] | –
40 | CCOC(=O)N/N=C(\C)c1ccc(C)c([N+](=O)[O-])c1 | – | inactive: 18.8%
41 | COCCNC(=O)C1(C)CCCN(Cc2noc(-c3ccccc3OC)n2)C1 (stereo not given) | inconclusive [rising, single point] | –
42 | O=C(CCl)NC(Cc1ccccc1)c1ccccc1 (stereo not given) | inconclusive [cytotoxic, single point] | –
43 | COc1ccc2c(c1)CCC(C)N2C(=O)C(=O)c1c[nH]c2ccccc12 (stereo not given) | inconclusive [cytotoxic, single point] | –
44 | O=C(CSc1nnc(NC(=O)C2CC2)s1)Nc1ccccc1C(F)(F)F | inconclusive [cytotoxic, partial curve] | –
45 | C(=C\c1ccccc1)/CN1CCN(C(c2cc3ccccc3o2)c2nnnn2C2CCCC2)CC1 (stereo not given) | – | inactive: 16.4%
46 | Cc1cc(C(=O)N2CC(C)CC(C)C2)n(-c2ccccc2)n1 (stereo not given) | – | inactive: 16.4%
47 | CCOc1ccc(OCc2ccc(C(=O)N/N=C(\C)c3ccccn3)cc2)cc1 | inconclusive [cytotoxic, partial curve, poor fit] | –
48 | Cc1ccccc1C(=O)NCC(=O)OC(C)C(=O)Nc1cccc(S(=O)(=O)N2CCOCC2)c1 (stereo not given) | – | inactive: -0.61%

Row | SMILES | Potency | activity, negative = less viability
49 | Clc1cccc(Cl)c1/C=C/c1nc2ccccc2[nH]1 | inconclusive [cytotoxic, single point] | –
50 | COc1ccc(CCNC(=O)c2sc(=S)n(C)c2N)cc1 | inconclusive [cytotoxic, single point] | –
51 | COc1cccc(C(=O)NC2CC3CCCC(C2)N3CC(=O)Nc2ccccc2C(F)(F)F)c1 (stereo not given) | inconclusive [cytotoxic, partial curve, poor fit] | –
52 | COc1cc(/C=N/NS(=O)(=O)c2ccc(C)cc2)ccc1OCc1ccc(C(=O)O)cc1 | – | inactive: -2.91%
53 | CCC(Cc1ccccc1)NC(=O)CCn1cccc1 (stereo not given) | inconclusive [cytotoxic, single point] | –
54 | Cc1ccc(-c2noc(CCCC(=O)NC3CCCC3)n2)cc1 | inconclusive [cytotoxic, partial curve] | –
55 | CCOC(=O)c1c(NC(NC(C)=O)C(Cl)(Cl)Cl)sc2c1CCCC2 (stereo not given) | inconclusive [cytotoxic, single point] | –
56 | Cc1ccc(CN2CCNC(=O)C2CC(=O)NCc2cc(C)n(C)n2)cc1 (stereo not given) | – | inactive: 2.95%
57 | Cc1nnc(N/N=C/c2ccc(Br)cc2)n1N | inconclusive [cytotoxic, single point] | –
58 | CCC(C(=O)Nc1c(C)cccc1C)n1c(-c2cc(C)cs2)nc2ccccc21 (stereo not given) | inconclusive [cytotoxic, single point] | –
59 | CCCCc1oc2c(c(=O)c1C)C(=O)CC(c1ccccc1)C2 (stereo not given) | inconclusive [cytotoxic, single point] | –
60 | CCCOc1ccc(C(=O)CCN2CCCCC2)cc1 | inconclusive [cytotoxic, single point] | –
61 | CC(CNC(=S)Nc1cc(F)cc(F)c1)CSc1ccc(Cl)cc1 (stereo not given) | active: 18.4 µM | –
62 | Nc1c(C(=O)Nc2ccccc2)c2nc3ccccc3nc2n1-c1ccc(O)cc1 | inconclusive [cytotoxic, single point] | –
63 | CCSc1ccccc1C(=O)N=C1NC(=O)CC2C(=O)NCCN12 (stereo not given) | inconclusive [rising, single point] | –
64 | O=C(/C=C/c1ccc(F)cc1)NC(=S)N1CCCCC1c1cccnc1 (stereo not given) | inconclusive [rising, partial curve, poor fit] | –
65 | Cc1ccc2c(c1)-c1cc(C)nn1C(c1ccc3c(c1)OCO3)N2 (stereo not given) | – | inactive: -1.2%
66 | CC1=CC(=NOC(=O)c2cccc([N+](=O)[O-])c2)C=C(C)C1=O | inconclusive [cytotoxic, single point] | –
67 | COc1cccc2c1cc1c(=O)n(CC(=O)N3CCCC3)nc(C)n12 | inconclusive [rising, partial curve] | –
68 | CC(Oc1ccccc1)C(=O)N1CCc2ccccc2C1 (stereo not given) | inconclusive [rising, partial curve] | –
69 | CN(CCCC1CCCC1)C(=O)c1cc(COc2ccc(F)cc2F)on1 | – | inactive: 5.93%
70 | CC1=C(CC(=O)c2ccccc2)C(=O)c2ccccc2C1=O | inconclusive [cytotoxic, single point] | –
